{
  "source": "the supplement of paper PMC8728848",
  "binders": {"B1": {"name": "PMA (Polygonatum multiflorum) (protein)", "chain": "LLTTTLFVFISSTRSLASTNVLYSDVGNAILNAKESLIYGDYRLDMQSDCNLVLYNKAAPYWASGTRWSWGGNCHLNLQSNGELVMYAYLGRTRIAIWRSGIISATGSYALVLKYDGALHVHGPSLWSTNATGPTTPTTASWSIDSTLWSGDVATIGPTIANGDYKLELLDTCNLTLSNTKTGQVLWYTNTTDWVHDCYVNIEGNGELKIKYLGGATLWSNKVGAGYTNNYVLGLRPDGKLDTYNAPIWSPTIGPGVHVAPAVYNASSNAVAAEGNGEKIAMVTGRAKNST"}},
  "experiment_in_all_cases": "glycan array binding signal (z-score within array); higher = stronger binding",
  "conditions_in_all_cases": "glycan notation: IUPAC condensed, linker removed",
  "key": {"[1]": {"molecular_target": "Neu5Ac(a2-3)Gal(b1-4)GlcNAc6S", "procedure,_shortened": "(§1)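 Negative Z-scores can be read as non-binding. The Z-score is calculated within each array and then averaged across arrays of one protein sequence at different concentrations or buffers and across linkers. Arrays, 3228 in all, were curated from the Consortium for Functional Glycomics database and kept only where the protein sequence was available.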"}, "[2]": {"molecular_target": "Neu5Ac(a2-3)Gal(b1-4)[Fuc(a1-3)]GlcNAc", "procedure,_shortened": "as §1"}, "[3]": {"molecular_target": "Neu5Ac(a2-3)Gal(b1-4)[Fuc(a1-3)]GlcNAc(b1-3)Gal", "procedure,_shortened": "as §1"}, "[4]": {"molecular_target": "Neu5Ac(a2-3)Gal(b1-4)[Fuc(a1-3)]GlcNAc(b1-3)Gal(b1-4)GlcNAc", "procedure,_shortened": "as §1"}, "[5]": {"molecular_target": "Neu5Ac(a2-3)Gal(b1-4)[Fuc(a1-3)]GlcNAc(b1-3)Gal(b1-4)[Fuc(a1-3)]GlcNAc(b1-3)Gal(b1-4)[Fuc(a1-3)]GlcNAc", "procedure,_shortened": "as §1"}, "[6]": {"molecular_target": "Neu5Ac(a2-3)Gal(b1-4)[Fuc(a1-3)]GlcNAc6S", "procedure,_shortened": "as §1"}, "[7]": {"molecular_target": "Neu5Ac(a2-3)Gal6S(b1-4)GlcNAc", "procedure,_shortened": "as §1"}, "[8]": {"molecular_target": "Neu5Ac(a2-3)Gal6S(b1-4)[Fuc(a1-3)]GlcNAc", "procedure,_shortened": "as §1"}, "Neu5Ac(a2-3)GalNAc": {"molecular_target": "Neu5Ac(a2-3)GalNAc", "procedure,_shortened": "as §1"}, "[9]": {"molecular_target": "Neu5Ac(a2-3)GalNAc(b1-4)GlcNAc", "procedure,_shortened": "as §1"}, "[10]": {"molecular_target": "Neu5Ac(a2-3)[GalNAc(b1-4)]Gal(b1-4)Glc", "procedure,_shortened": "as §1"}, "[11]": {"molecular_target": "Neu5Ac(a2-3)[GalNAc(b1-4)]Gal(b1-4)GlcNAc", "procedure,_shortened": "as §1"}, "[12]": {"molecular_target": "Neu5Ac(a2-3)[Neu5Ac(a2-6)]GalNAc", "procedure,_shortened": "as §1"}, "Neu5Ac(a2-6)Gal": {"molecular_target": "Neu5Ac(a2-6)Gal", "procedure,_shortened": "as §1"}, "Neu5Ac(a2-6)Gal(b1-4)Glc": {"molecular_target": "Neu5Ac(a2-6)Gal(b1-4)Glc", "procedure,_shortened": "as §1"}, "[13]": {"molecular_target": "Neu5Ac(a2-6)Gal(b1-4)GlcNAc", "procedure,_shortened": "as §1"}, "[14]": {"molecular_target": "Neu5Ac(a2-6)Gal(b1-4)GlcNAc(b1-3)Gal(b1-4)GlcNAc", "procedure,_shortened": "as §1"}, "[15]": {"molecular_target": "Neu5Ac(a2-6)Gal(b1-4)GlcNAc(b1-3)Gal(b1-4)[Fuc(a1-3)]GlcNAc(b1-3)Gal(b1-4)[Fuc(a1-3)]GlcNAc", "procedure,_shortened": "as §1"}, "[16]": {"molecular_target": "Neu5Ac(a2-6)Gal(b1-4)GlcNAc6S", "procedure,_shortened": "as §1"}, "Neu5Ac(a2-6)GalNAc": {"molecular_target": "Neu5Ac(a2-6)GalNAc", "procedure,_shortened": "as §1"}, "[17]": {"molecular_target": "Neu5Ac(a2-6)GalNAc(b1-4)GlcNAc", "procedure,_shortened": "as §1"}, "Neu5Ac(a2-8)Neu5Ac": {"molecular_target": "Neu5Ac(a2-8)Neu5Ac", "procedure,_shortened": "as §1"}, "[18]": {"molecular_target": "Neu5Ac(a2-8)Neu5Ac(a2-3)Gal(b1-4)Glc", "procedure,_shortened": "as §1"}, "[19]": {"molecular_target": "Neu5Ac(a2-8)Neu5Ac(a2-3)[GalNAc(b1-4)]Gal(b1-4)Glc", "procedure,_shortened": "as §1"}, "[20]": {"molecular_target": "Neu5Ac(a2-8)Neu5Ac(a2-8)Neu5Ac", "procedure,_shortened": "as §1"}, "[21]": {"molecular_target": "Neu5Ac(a2-8)Neu5Ac(a2-8)Neu5Ac(a2-3)Gal(b1-4)Glc", "procedure,_shortened": "as §1"}, "[22]": {"molecular_target": "Neu5Ac(a2-8)Neu5Ac(a2-8)Neu5Ac(a2-3)[GalNAc(b1-4)]Gal(b1-4)Glc", "procedure,_shortened": "as §1"}, "[23]": {"molecular_target": "Neu5Ac(a2-8)Neu5Ac(a2-8)Neu5Ac(a2-8)Neu5Ac(a2-3)[GalNAc(b1-4)]Gal(b1-4)Glc", "procedure,_shortened": "as §1"}, "Neu5Ac(b1-6)GalNAc": {"molecular_target": "Neu5Ac(b1-6)GalNAc", "procedure,_shortened": "as §1"}, "[24]": {"molecular_target": "Neu5Ac(b2-6)Gal(b1-4)GlcNAc", "procedure,_shortened": "as §1"}, "[25]": {"molecular_target": "Neu5Ac9Ac(a2-6)Gal(b1-4)GlcNAc", "procedure,_shortened": "as §1"}, "[26]": {"molecular_target": "Neu5Gc(a2-3)Gal(b1-3)GlcNAc", "procedure,_shortened": "as §1"}, "[27]": {"molecular_target": "Neu5Gc(a2-3)Gal(b1-3)[Fuc(a1-4)]GlcNAc", "procedure,_shortened": "as §1"}, "Neu5Gc(a2-3)Gal(b1-4)Glc": {"molecular_target": "Neu5Gc(a2-3)Gal(b1-4)Glc", "procedure,_shortened": "as §1"}, "[28]": {"molecular_target": "Neu5Gc(a2-3)Gal(b1-4)GlcNAc", "procedure,_shortened": "as §1"}, "[29]": {"molecular_target": "Neu5Gc(a2-3)Gal(b1-4)[Fuc(a1-3)]GlcNAc", "procedure,_shortened": "as §1"}, "[30]": {"molecular_target": "Neu5Gc(a2-6)Gal(b1-4)GlcNAc", "procedure,_shortened": "as §1"}, "Neu5Gc(a2-6)GalNAc": {"molecular_target": "Neu5Gc(a2-6)GalNAc", "procedure,_shortened": "as §1"}},
  "note": "This is one part of the list.",
  "data": [
    {"binder": "B1", "values": [
      {"measurement": "glycan array binding signal (z-score)", "setting": "[1]", "value": -0.251},
      {"measurement": "glycan array binding signal (z-score)", "setting": "[2]", "value": -0.241},
      {"measurement": "glycan array binding signal (z-score)", "setting": "[3]", "value": -0.261},
      {"measurement": "glycan array binding signal (z-score)", "setting": "[4]", "value": -0.243},
      {"measurement": "glycan array binding signal (z-score)", "setting": "[5]", "value": -0.248},
      {"measurement": "glycan array binding signal (z-score)", "setting": "[6]", "value": -0.247},
      {"measurement": "glycan array binding signal (z-score)", "setting": "[7]", "value": -0.195},
      {"measurement": "glycan array binding signal (z-score)", "setting": "[8]", "value": -0.011},
      {"measurement": "glycan array binding signal (z-score)", "setting": "Neu5Ac(a2-3)GalNAc", "value": -0.195},
      {"measurement": "glycan array binding signal (z-score)", "setting": "[9]", "value": -0.252},
      {"measurement": "glycan array binding signal (z-score)", "setting": "[10]", "value": -0.249},
      {"measurement": "glycan array binding signal (z-score)", "setting": "[11]", "value": -0.252},
      {"measurement": "glycan array binding signal (z-score)", "setting": "[12]", "value": -0.152},
      {"measurement": "glycan array binding signal (z-score)", "setting": "Neu5Ac(a2-6)Gal", "value": -0.247},
      {"measurement": "glycan array binding signal (z-score)", "setting": "Neu5Ac(a2-6)Gal(b1-4)Glc", "value": -0.255},
      {"measurement": "glycan array binding signal (z-score)", "setting": "[13]", "value": -0.249},
      {"measurement": "glycan array binding signal (z-score)", "setting": "[14]", "value": -0.246},
      {"measurement": "glycan array binding signal (z-score)", "setting": "[15]", "value": -0.241},
      {"measurement": "glycan array binding signal (z-score)", "setting": "[16]", "value": -0.215},
      {"measurement": "glycan array binding signal (z-score)", "setting": "Neu5Ac(a2-6)GalNAc", "value": -0.182},
      {"measurement": "glycan array binding signal (z-score)", "setting": "[17]", "value": -0.259},
      {"measurement": "glycan array binding signal (z-score)", "setting": "Neu5Ac(a2-8)Neu5Ac", "value": -0.078},
      {"measurement": "glycan array binding signal (z-score)", "setting": "[18]", "value": -0.253},
      {"measurement": "glycan array binding signal (z-score)", "setting": "[19]", "value": -0.241},
      {"measurement": "glycan array binding signal (z-score)", "setting": "[20]", "value": -0.222},
      {"measurement": "glycan array binding signal (z-score)", "setting": "[21]", "value": -0.239},
      {"measurement": "glycan array binding signal (z-score)", "setting": "[22]", "value": -0.242},
      {"measurement": "glycan array binding signal (z-score)", "setting": "[23]", "value": -0.245},
      {"measurement": "glycan array binding signal (z-score)", "setting": "Neu5Ac(b1-6)GalNAc", "value": -0.248},
      {"measurement": "glycan array binding signal (z-score)", "setting": "[24]", "value": -0.245},
      {"measurement": "glycan array binding signal (z-score)", "setting": "[25]", "value": -0.243},
      {"measurement": "glycan array binding signal (z-score)", "setting": "[26]", "value": -0.262},
      {"measurement": "glycan array binding signal (z-score)", "setting": "[27]", "value": 0.061},
      {"measurement": "glycan array binding signal (z-score)", "setting": "Neu5Gc(a2-3)Gal(b1-4)Glc", "value": -0.232},
      {"measurement": "glycan array binding signal (z-score)", "setting": "[28]", "value": -0.257},
      {"measurement": "glycan array binding signal (z-score)", "setting": "[29]", "value": -0.258},
      {"measurement": "glycan array binding signal (z-score)", "setting": "[30]", "value": -0.257},
      {"measurement": "glycan array binding signal (z-score)", "setting": "Neu5Gc(a2-6)GalNAc", "value": -0.182}
    ]}
  ]
}
